Results as given in PubChem BioAssay AID504332 (National Center for Advancing Translational Sciences (NCATS), 2011).
Screen size: about 350,000 compounds; about 31,000 (8.9%) were called active. Inconclusive means that the source gave no clear call. Such entries were picked first, then a sample of the others. Calls follow the shape of the dose curve; as a rule, active = well fitted inhibition curve with a large enough effect; inconclusive = small, poorly fitted or top-dose-only effect; inactive = no such curve, though single readings can be large or run the other way. Potencies beside an inconclusive call are fits to weak or partial responses and may not hold up.
% is scaled to controls: 0 for no effect and ±100 for the full control effect; potency is read from the fitted curve at half-maximal effect; tags tell the direction and shape of the fitted curve.
Also: nearly all actives have a fitted effect of over 75% in size.

The compounds below were run against Histone-lysine N-methyltransferase EHMT2 (Homo sapiens) (UniProt Q96KQ7) (assay: qHTS Assay for Inhibitors of Histone Lysine Methyltransferase G9a). Conditions: G9a H3K9 monomethylation, AlphaScreen, 2 h; activity, negative = inhibition: at 59 µM (top of the series) unless noted.
Chain of UniProt Q96KQ7 (Q96KQ7 whole entry, looked up): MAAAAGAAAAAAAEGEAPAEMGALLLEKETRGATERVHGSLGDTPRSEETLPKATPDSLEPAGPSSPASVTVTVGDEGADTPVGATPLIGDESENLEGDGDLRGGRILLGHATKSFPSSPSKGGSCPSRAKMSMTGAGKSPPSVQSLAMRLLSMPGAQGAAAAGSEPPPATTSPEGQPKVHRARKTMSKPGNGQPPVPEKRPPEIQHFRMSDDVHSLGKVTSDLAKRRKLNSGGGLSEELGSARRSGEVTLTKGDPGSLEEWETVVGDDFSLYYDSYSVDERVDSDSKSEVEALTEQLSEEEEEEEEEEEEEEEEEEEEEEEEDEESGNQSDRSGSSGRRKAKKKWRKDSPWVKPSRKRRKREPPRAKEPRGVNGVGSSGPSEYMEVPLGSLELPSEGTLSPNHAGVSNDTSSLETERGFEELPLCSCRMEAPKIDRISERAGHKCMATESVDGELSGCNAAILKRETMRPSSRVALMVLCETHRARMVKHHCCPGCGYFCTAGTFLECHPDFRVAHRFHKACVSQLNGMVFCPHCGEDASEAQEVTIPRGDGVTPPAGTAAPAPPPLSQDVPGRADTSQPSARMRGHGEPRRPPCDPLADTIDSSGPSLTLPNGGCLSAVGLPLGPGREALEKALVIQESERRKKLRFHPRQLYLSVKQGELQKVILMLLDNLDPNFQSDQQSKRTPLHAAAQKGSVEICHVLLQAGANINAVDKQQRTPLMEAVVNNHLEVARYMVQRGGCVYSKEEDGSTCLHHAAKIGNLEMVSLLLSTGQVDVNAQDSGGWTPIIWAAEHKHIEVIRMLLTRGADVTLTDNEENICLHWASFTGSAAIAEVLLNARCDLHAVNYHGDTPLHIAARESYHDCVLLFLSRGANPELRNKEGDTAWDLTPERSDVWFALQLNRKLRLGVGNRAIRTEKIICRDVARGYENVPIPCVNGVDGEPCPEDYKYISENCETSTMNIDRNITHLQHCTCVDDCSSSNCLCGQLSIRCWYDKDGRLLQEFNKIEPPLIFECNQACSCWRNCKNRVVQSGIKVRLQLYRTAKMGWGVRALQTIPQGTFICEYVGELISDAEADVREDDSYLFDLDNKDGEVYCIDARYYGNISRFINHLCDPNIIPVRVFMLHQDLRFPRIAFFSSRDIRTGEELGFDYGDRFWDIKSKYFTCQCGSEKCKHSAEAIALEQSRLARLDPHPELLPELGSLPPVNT
How it was run: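 Chemiluminescent proximity detection of H3K9 monomethylation, read after 10 min bead incubation in the dark. Reaction: 20 nM G9a, 500 nM biotin-H3K9 peptide, 20 uM SAM cofactor, 2 h, room temperature, following 15 min enzyme-compound preincubation.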
In the case of `O=C(NCc1cccs1)c1cccn2c(=O)c3sccc3nc12`, the Potency is reported as inconclusive: 89.1 µM [inhibitor, single point].
In the case of `CCC(OC(=O)c1ccco1)C(=O)NCc1ccco1` (stereo unspecified), the Potency is reported as inconclusive: 89.1 µM [inhibitor, partial curve, poor fit].
With `Cc1cc(Cl)c(OCCOCCN2CCCCC2)c(Br)c1` the Potency was active: 7.08 µM.
For `Cn1c(SCc2nc(-c3ccc(Br)cc3)no2)nnc1-c1ccco1`, the Potency was inconclusive: 89.1 µM [inhibitor, single point].
`CC(C)c1onc(C(=O)Nc2sc3c(c2C#N)CCC3)c1[N+](=O)[O-]` was tested, and the Potency was inconclusive: 39.8 µM [inhibitor, partial curve, poor fit].
With `Cc1cc(C)c(NC(=O)CSc2nncn3c2cc2oc(C)cc23)c(C)c1` the Potency was inconclusive: 28.2 µM [inhibitor, partial curve, poor fit].
In the case of `Cc1ccc(-n2nc(C)cc2NC(=O)CC#N)cc1`, the Potency is reported as “inactive”.
`Cc1cc(C)c(C2C3=C(Nc4c2c(C)nn4-c2ccccn2)c2ccccc2C3=O)c(C)c1` (stereo unspecified) was tested, and the Potency was active: 11.2 µM.
For `COc1cccc(C(C(=O)NCC2CCCO2)N(C(=O)Cn2nnc3ccccc32)c2ccccc2C(C)=O)c1OC` (stereo unspecified), the Potency was “inactive”.
With `Cc1ncc(CO)c(C=O)c1O` the Potency was inconclusive: 20 µM [inhibitor, single point].
With `Cc1ccc(OCCSc2nc(C)c(Cc3ccccc3)c(=O)[nH]2)cc1` the Potency was “inactive”.
With `O=C(COC(=O)c1ccccc1NC(=O)c1ccco1)NCc1ccc2c(c1)OCO2` the Potency was inconclusive: 89.1 µM [inhibitor, partial curve, poor fit].
With `O=C(Nc1cccc(-c2nc3ccccc3o2)c1)C(F)(F)F` the Potency was “inactive”.
With `CCCCCOc1ccc(CSC(=N)N)cc1[N+](=O)[O-]` the Potency was inconclusive: 31.6 µM [inhibitor, single point].
`O=C1NC(=O)/C(=C\c2ccccc2OCc2ccc([N+](=O)[O-])cc2)N1` was tested, and the Potency was “inactive”.
In the case of `CC(=O)c1ccc(NC(=O)CN(C)S(=O)(=O)c2cnc[nH]2)cc1`, the Potency is reported as “inactive”.
With `Cc1nnc(SCC2=C(C(=O)O)N3C(=O)C(NC(=O)COc4ccc(F)cc4)C3SC2)s1` (stereo unspecified) the Potency was inconclusive: 8.91 µM [inhibitor, single point].
With `COc1ccc(CNC(=O)Nc2cn(CC(C)C)c(=O)c3ccccc23)cc1` the Potency was inconclusive: 11.2 µM [inhibitor, partial curve].
For `CC(C)NC(=O)c1ccc(Sc2ccccc2)c([N+](=O)[O-])c1`, the Potency was inconclusive: 70.8 µM [inhibitor, partial curve, poor fit].
In the case of `Cc1ccc(CNC(=O)CCCCCNc2nc(=S)[nH]c3ccccc23)cc1`, the Potency is reported as “inactive”.
For `COCCN(CCOC)S(=O)(=O)c1ccc(C(=O)Nc2nc3c(s2)CCc2ccccc2-3)cc1`, the Potency was inconclusive: 31.6 µM [inhibitor, single point].
In the case of `CCCN1C(=O)/C(=C/c2cc(C)n(C)c2C)SC1=Nc1ccc(OC)cc1`, the activity, negative = inhibition is reported as inconclusive: -82.5% [inhibitor].
`CCc1nnc(SCC(=O)Nc2ccc(N3CCOCC3)cc2)n1C` was tested, and the Potency was “inactive”.
With `COCC(C)NCc1cccc([N+](=O)[O-])c1` (stereo unspecified) the Potency was active: 20 µM.
In the case of `CCN(CCO)Cc1csc2ccc(C(C)(C)C)cc12`, the Potency is reported as inconclusive: 20 µM [inhibitor, single point].
`COc1ccc(C(=O)O)cc1S(=O)(=O)N1CCN(c2ccccn2)CC1` was tested, and the Potency was inconclusive: 79.4 µM [inhibitor, single point].
For `O=C(O)CCc1ccc(-c2ccc(Br)cc2)n1-c1ccc(O)cc1`, the Potency was active: 44.7 µM.
`CCC(C)NCCCCOc1cc(C)cc(C(C)C)c1` (stereo unspecified) was tested, and the Potency was active: 11.2 µM.
With `CCCCCCn1c(-c2ccco2)nc2oc3cc(OC)ccc3c(=O)c2c1=O` the Potency was active: 20 µM.
For `Cc1c(N2C(=O)SC(CC(=O)O)C2=O)c(=O)n(-c2ccccc2)n1C` (stereo unspecified), the Potency was inconclusive: 50.1 µM [inhibitor, partial curve, poor fit].
`O=C(Cc1c2ccccc2nc2ccccc12)c1ccccc1` was tested, and the Potency was “inactive”.
With `O=C(CCCn1c(=S)[nH]c2ccccc2c1=O)N1CCCCC1` the Potency was inconclusive: 25.1 µM [inhibitor, single point].
In the case of `Cc1ccc2cc(CN(CC3CCCO3)C(=O)C(C)C)c(=O)[nH]c2c1` (stereo unspecified), the Potency is reported as inconclusive: 31.6 µM [inhibitor, single point].
`N#CC(C#N)=C1c2cc(S(N)(=O)=O)ccc2-c2ccc(S(N)(=O)=O)cc21` was tested, and the Potency was active: 17.8 µM.
With `COc1ccccc1N1CCN(/N=C\c2ccc(C)o2)CC1` the Potency was inconclusive: 39.8 µM [inhibitor, single point].
`CCn1c(-c2c[nH]c3ccccc23)n[nH]c1=S` was tested, and the Potency was active: 1.26 µM.
`C=CCOC(=O)C1=C(C)Nc2nnnn2C1c1ccc(OC)cc1OC` (stereo unspecified) was tested, and the Potency was “inactive”.
For `CCOC(=O)c1ccc(S(=O)(=O)NNC(=O)c2ccc3c(c2)nc(C)n3CC)cc1`, the Potency was inconclusive: 50.1 µM [inhibitor, partial curve, poor fit].
`CCc1nn(CCCC(=O)N2CCN(c3cccc(OC)c3)CC2)c(=O)c2cc3occc3n12` was tested, and the Potency was “inactive”.
In the case of `Cc1nc(N2CCCCC2)sc1C(=O)c1cccc([N+](=O)[O-])c1`, the activity, negative = inhibition is reported as inconclusive: -87.2% [inhibitor].
With `CCC(=O)Oc1ccc(C2Nc3ccccc3-c3nnc(SC)nc3O2)cc1` (stereo unspecified) the Potency was “inactive”.
With `Cc1ccc(S(=O)(=O)Nc2cc3c(cc2N2CCOCC2)n(C)c(=O)n3C)cc1` the Potency was inconclusive: 31.6 µM [inhibitor, partial curve, poor fit].
For `C[C@H](NC(=O)c1[nH]cnc1C(=O)Nc1ccc(CNC(=O)OC(C)(C)C)cc1)C(=O)OCc1ccccc1`, the Potency was inconclusive: 7.08 µM [inhibitor, single point].
For `Cc1ccc(C)c(S(=O)(=O)NC(C)CCc2ccccc2)c1` (stereo unspecified), the Potency was “inactive”.
For `CC1(C)CC(=O)C2=C(C1)NC1=C(C(=O)c3ccccc31)C2c1ccc(Cl)cc1` (stereo unspecified), the Potency was inconclusive: 15.8 µM [inhibitor, partial curve, poor fit].
`O=C(C1=NN[C@@H]2C(=O)N(c3ccccc3C(F)(F)F)C(=O)[C@H]12)c1cnccn1` was tested, and the Potency was inconclusive: 70.8 µM [inhibitor, partial curve, poor fit].
